These results are taken from PMC3797048.

Protein sequences, listed by entry. Tags and fused reporters are not part of them. Residues count along the entry.
UniProt P78324, residues 31-504: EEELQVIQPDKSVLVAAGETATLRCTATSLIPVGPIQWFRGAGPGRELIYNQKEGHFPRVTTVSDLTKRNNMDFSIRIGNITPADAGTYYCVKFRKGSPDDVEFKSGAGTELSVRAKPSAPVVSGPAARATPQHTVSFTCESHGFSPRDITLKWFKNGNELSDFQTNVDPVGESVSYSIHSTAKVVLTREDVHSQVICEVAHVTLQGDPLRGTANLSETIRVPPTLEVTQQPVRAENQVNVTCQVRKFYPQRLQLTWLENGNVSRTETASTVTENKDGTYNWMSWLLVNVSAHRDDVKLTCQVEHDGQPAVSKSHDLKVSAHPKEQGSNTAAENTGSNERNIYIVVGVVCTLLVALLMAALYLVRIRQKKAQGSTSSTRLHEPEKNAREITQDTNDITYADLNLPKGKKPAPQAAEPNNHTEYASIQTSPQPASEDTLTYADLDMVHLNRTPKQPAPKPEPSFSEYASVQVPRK

These are yes or no findings as the source states them, for the method shown. For part of these data: In cells and extracts the contact can be indirect. Some results given as binding are weak or reduced against the parent protein; the word gives no strength.

For experiment [1], the target named is SIRPα of human peripheral blood monocytes (naïve, MCP-1-treated or transmigrated) (human (endogenous in peripheral blood monocytes)) (UniProt P78324). As to the kind of experiment: sucrose density gradient equilibrium ultracentrifugation; lysates of PBMC (naïve monocytes); sucrose gradient 5-35%, 165,000 g, 14 h, 4°C; ten fractions, WB of SIRPα.
Experiment [2] has the same target. Kind of experiment: cross-linking; naïve monocytes (human and murine) treated with the cell-impermeable crosslinker DTSSP, 30 min, 25°C; lysis; SDS-PAGE and WB under non-reducing and reducing conditions.
Experiment [3] concerns the target T1, murine SIRPα of mouse peripheral monocytes and macrophages (mouse (endogenous in monocytes and macrophages)), P97797.
T1 chain: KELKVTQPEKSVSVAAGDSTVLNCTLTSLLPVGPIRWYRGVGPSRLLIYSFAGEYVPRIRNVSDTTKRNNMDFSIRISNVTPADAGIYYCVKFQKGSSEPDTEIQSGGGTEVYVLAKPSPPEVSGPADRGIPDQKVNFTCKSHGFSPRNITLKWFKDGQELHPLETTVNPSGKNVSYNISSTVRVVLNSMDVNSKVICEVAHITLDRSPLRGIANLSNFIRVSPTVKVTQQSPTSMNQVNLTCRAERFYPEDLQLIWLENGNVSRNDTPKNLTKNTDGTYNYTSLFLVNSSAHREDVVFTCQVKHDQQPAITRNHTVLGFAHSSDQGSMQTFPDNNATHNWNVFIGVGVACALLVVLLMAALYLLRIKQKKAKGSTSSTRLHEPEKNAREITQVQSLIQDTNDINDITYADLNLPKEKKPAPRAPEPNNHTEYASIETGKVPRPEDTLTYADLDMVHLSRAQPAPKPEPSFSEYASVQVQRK
As to the kind of experiment: cross-linking; transmigrated monocytes and macrophages treated with the cell-impermeable crosslinker DTSSP, 30 min, 25°C; lysis; SDS-PAGE and WB under non-reducing and reducing (+DTT) conditions; DTT resolved SIRPα to its monomeric size. The settings on record: remark: other sources report otherwise.

In experiment [4] the target is T1, murine SIRPα of mouse peripheral …. As to the kind of experiment: sucrose density gradient equilibrium ultracentrifugation; lysates of DTSSP-crosslinked transmigrated monocytes and macrophages; sucrose gradients 5-35% (human monocytes) or 15-45% (mouse macrophages), 165,000 g, 14 h, 4°C; ten fractions, WB of SIRPα. The settings on record: remark: other sources report otherwise.

Experiment [5] has as its target murine SIRPα of mouse peripheral monocytes and macrophages (mouse (endogenous in monocytes and macrophages)) (UniProt P97797). As to the kind of experiment: cross-linking; naïve monocytes (human and murine) treated with the cell-impermeable crosslinker DTSSP, 30 min, 25°C; lysis; SDS-PAGE and WB under non-reducing and reducing conditions.
The target is the same in experiment [6]. Kind of experiment: condition: only without DTSSP crosslinking, in 1% Triton X-100 lysate; sucrose density gradient equilibrium ultracentrifugation; lysates (1% Triton X-100) of macrophages without DTSSP crosslinking; sucrose gradient 15-45%, 165,000 g, 14 h, 4°C; ten fractions, WB of SIRPα.

With “SIRPα of human peripheral blood monocytes (naïve, MCP-1-treated or transmigrated) (from UniProt P78324 31-504) (receptor)”, the figures for the binding result in experiment [1] and in experiment [2] were “no binding (condition: naïve monocytes (PBMC))” and “no binding (condition: naïve monocytes)”, respectively.

B1: murine SIRPα of mouse peripheral monocytes and macrophages, P97797 32-513 (receptor)
chain: T1 chain
For the molecule B1, the binding entry in experiment [3] and in experiment [4] was “binds” each time.

B2: murine SIRPα of mouse peripheral monocytes and macrophages (receptor, UniProt P97797 32-513)
chain: T1 chain
As to B2, the figures for the binding result in experiment [5] and in experiment [6] were “no binding (condition: naïve monocytes)” and “no binding”, respectively.
